The inconclusive results got no clear call from the source; some entries with a clear call stand among them for comparison. Potencies beside an inconclusive call are fits to weak or partial responses and may not hold up. The source made the active and inactive calls. The call rests on the fitted dose curve; in most records, active means well fitted inhibition curve with a large enough effect; inconclusive means small, poorly fitted or top-dose-only effect; inactive means no such curve, though single readings can be large or run the other way.
These compounds were tested against Retinaldehyde dehydrogenase 3 (Homo sapiens) (UniProt P47895) (assay: qHTS for Inhibitors of the Aldehyde Dehydrogenase Family (ALDH1A3) Primary screen (AID 2061315)). Settings: ALDH inhibition qHTS; series mostly up to 56 µM.
Potency means the concentration at half of the fitted maximal effect; tags describe the fitted curve by direction and shape.

**Q.** How did the Potency turn out when `O=C(N[C@H](Cc1cscn1)C(=O)N[C@@H](CC1CCCCC1)[C@@H](O)[C@@H](O)C1CC1)c1nc2ccccc2[nH]1` was run?
**A.** inactive

**Q.** `COc1cccc(Nc2ccc(N3CCN(C(C)=O)CC3)cc2)c1OC` was tested. Which Potency did it give?
**A.** inconclusive: 12.6 µM [inhibitor, partial curve]

**Q.** Which Potency does the source give for `Oc1ccc(CNc2ccccc2C(F)(F)F)c2cccnc12` here?
**A.** inconclusive: 22.4 µM [inhibitor, single point]

**Q.** Which Potency does the source give for `COc1ccc2oc(NC3=NC(c4[nH]ncc4Cl)C4=C(CCCC4=O)N3)nc2c1` (stereo unspecified) here?
**A.** inconclusive: 14.1 µM [inhibitor, partial curve, poor fit]

**Q.** With `CC(CN1c2ccccc2Sc2ccc(S(=O)(=O)N(C)C)cc21)N(C)C` (stereo unspecified) as the compound, how does the Potency read?
**A.** inconclusive: 10 µM [inhibitor, partial curve]

**Q.** With `CC1(C)C=Cc2c(ccc3c2[N+]([O-])=C2C3(O)CC34NC(=O)C5(CCCN5C3=O)CC4C2(C)C)O1` (stereo unspecified) as the compound, how does the Potency read?
**A.** inconclusive: 8.91 µM [inhibitor, single point]
